Experimental data from PubChem BioAssay AID1671193 (National Center for Advancing Translational Sciences (NCATS), 2021).
Hit rate of the full screen: of about 150,000 compounds, about 180 (0.12%) were called active. Inconclusive means that the source gave no clear call. Such entries were picked first, then a sample of the others. Calls come from the whole dose curve; as a rule, active = well fitted cell-killing curve with a large enough effect; inconclusive = small, poorly fitted or top-dose-only effect, or effect the other way; inactive = flat fitted curve, though single readings scatter. Potencies beside an inconclusive call are fits to weak or partial responses and may not hold up.

experiment: GF-AFC viability counterscreen for inhibitors of alpha-synuclein gene (SNCA) expression; settings: HEK-293-SNCA-luc viability, GF-AFC fluorescence, 24 h; activity change, negative = cytotoxicity: at 57.1 µM (top of the series) unless noted; note: nearly all actives have a fitted effect of over 30% in size;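 for activity change, negative = cytotoxicity: 0% = DMSO-treated cells and -100% = medium-only wells without cells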
Procedure, shortened: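 Cytotoxicity counterscreen: after 24 h compound treatment of genome-edited SNCA-luciferase HEK-293 cells, live-cell protease substrate GF-AFC read by fluorescence after 30 min; activity scaled between DMSO (0%) and medium-only (-100%), curves Hill-fitted.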
Potency is the fitted concentration of half-maximal effect; tags give direction and shape of the fitted curve.

| Structure (SMILES) | Potency | activity change, negative = cytotoxicity |
| --- | --- | --- |
| Cc1nc(C)c(C(=O)N2CCC(Oc3ccccc3-c3nc(-c4ccccc4)no3)C2)s1 (configuration not stated) | inconclusive: 14.1 µM [cytotoxic, partial curve, poor fit] |  |
| COC(=O)[C@]12CCC(C)(C)C[C@@H]1[C@@H]1C(=O)C=C3[C@@]4(C)C=C(C#N)C(=O)C(C)(C)[C@@H]4CC[C@@]3(C)[C@]1(C)CC2 | active: 13.6 µM |  |
| COCCOC1CN(C2CCN(C(=O)COc3ccc(F)cc3)CC2)C12CCCCC2 (configuration not stated) |  | inactive: 0.712% |
| Fc1ccc(CN2CCNc3cnc(-c4ccccc4)cc3C2)cc1F | inconclusive: 35.5 µM [cytotoxic, partial curve, poor fit] |  |
| N#CCCn1c(=O)c(-c2ccc(Cl)cc2)nc2cnc(N3CCNCC3)nc21 | inconclusive: 14.1 µM [rising, partial curve] |  |
| Cc1ccc(Cn2c(C(=O)O)c(CNCCc3ccco3)c3ccc(C)cc32)cc1 | inconclusive: 39.8 µM [cytotoxic, single point] |  |
| COc1ccc(C)cc1NC(=O)CN1C(=O)NC(c2ccccc2Cl)C2=C1COC2=O (configuration not stated) | inconclusive: 2 µM [rising, full curve, poor fit] |  |
| COc1cc(-c2nc3ccc(C)cn3c2Nc2ccc(Cl)cc2)ccc1O | inconclusive: 8.91 µM [cytotoxic, partial curve, poor fit] |  |
| COCCN(CCOC)C(=O)c1cc2c(=O)n3ccccc3nc2n1C | inconclusive: 25.1 µM [rising, partial curve, poor fit] |  |
| CCOc1ccc(C(=O)N2CCN(c3cc(-c4ccc(Cl)cc4)[nH]n3)CC2)cc1OCC | inconclusive: 35.5 µM [cytotoxic, single point] |  |
| COc1cccc(-c2nnc3n(Cc4ccccc4Cl)c(=O)c4ccccc4n23)c1O | inconclusive: 10 µM [cytotoxic, partial curve, poor fit] |  |
| CCc1ccc(N2CC(c3noc(-c4ccc5ncccc5c4)n3)CC2=O)cc1 (configuration not stated) |  | inactive: 2.19% |
| O=C(c1cc(F)ccc1F)N1CCCC(Cc2noc(-c3ccccc3)n2)C1 (configuration not stated) | inconclusive: 20 µM [cytotoxic, partial curve, poor fit] |  |
| Cc1ccc(C2=NC3(CCN(C(=O)c4ccc(C)c(F)c4)CC3)ON2)cc1 | inconclusive: 3.16 µM [rising, partial curve, poor fit] |  |
| CCOc1ccc(CC(=O)N2CCC[C@H]2c2nc(-c3ccc(C)cc3)no2)cc1OCC | inconclusive: 20 µM [cytotoxic, partial curve, poor fit] |  |
| CN1CC2(CCN(Cc3ccccc3)CC2)CC1C(=O)N1CCOCC1 (configuration not stated) | inconclusive: 3.16 µM [cytotoxic, single point] |  |
| CCCCN(C)CCCNC(=O)C1CCN(c2nc3ccc(CC)cc3s2)CC1 | inconclusive: 31.6 µM [cytotoxic, partial curve, poor fit] |  |
| COc1ccccc1Nc1ccnc(N2CCCC(C(=O)NCC3CC3)C2)n1 (configuration not stated) |  | inactive: -5.55% [at 12.5 µM] |
| CC(=O)c1ccc(NC(=O)CCSc2nc(-c3ccco3)cc(C(F)(F)F)n2)cc1 | inconclusive: 4.47 µM [rising, partial curve, poor fit] |  |

| Structure (SMILES) | Potency | activity change, negative = cytotoxicity |
| --- | --- | --- |
| N#Cc1ccc(CN2CC(CNC(=O)c3ccccc3)C3(C2)CN(c2ccccc2)C3)cc1 (configuration not stated) | inconclusive: 31.6 µM [cytotoxic, partial curve, poor fit] |  |
| Cc1ccc(C(=O)Nc2cccc(C(F)(F)F)c2)cc1-c1ccc2nc(NCCN3CCOCC3)ncc2c1 | inconclusive: 17.1 µM [cytotoxic, partial curve, poor fit] |  |
| CN1CCN(C2CCC(n3cc(-c4ccc(Oc5ccccc5)cc4)c4c(N)ncnc43)CC2)CC1 (configuration not stated) | inconclusive: 23.8 µM [cytotoxic, partial curve, poor fit] |  |
| Cc1ccc(Cl)cc1-n1ncc2c(NC3CCCCCC3)ncnc21 | inconclusive: 31.6 µM [cytotoxic, single point] |  |
| COc1ccc2c(c1OC)C(=O)O[C@@H]2[C@H]1c2c(cc3c(c2OC)OCO3)CCN1C | inconclusive: 5.62 µM [cytotoxic, partial curve, poor fit] |  |
| COc1cc(C(=O)N2CCN(c3cc(-c4ccc(Cl)cc4)[nH]n3)CC2)cc(OC)c1OC |  | inactive: 2.25% |
| COc1ccc(-c2cc(C(F)(F)F)nc(S(=O)(=O)CCCC(=O)Nc3cccc(O)c3)n2)cc1OC | inconclusive: 20 µM [cytotoxic, partial curve, poor fit] |  |
| O=C(Nc1ccccc1-c1cn2c(CN3CCNCC3)csc2n1)c1cnc2ccccc2n1 | inconclusive: 27.1 µM [cytotoxic, single point] |  |
| O=C(Nc1ccccc1)C1CCN(C(=O)c2ncn3c2COC(c2ccccc2)C3)CC1 (configuration not stated) |  | inactive: -5.53% |
| NC(=O)Nc1cc(-c2cccc(F)c2)sc1C(=O)NC1CCCNC1 (configuration not stated) | inconclusive: 0.423 µM [cytotoxic, full curve, poor fit] |  |
| COc1ccccc1-c1cc(N(C)Cc2ccco2)ncn1 |  | inconclusive: -36.8% [cytotoxic] |
| Cn1c(=O)c(-c2cccc(Cl)c2)nc2cncnc21 | inconclusive: 22.4 µM [cytotoxic, single point] |  |
| COc1ccc(-c2[nH]c3ccccc3c2SCCNC(=O)c2cc(OC)c(OC)c(OC)c2)cc1 | inconclusive: 39.8 µM [cytotoxic, single point] |  |
| Cc1ccc(N2C[C@]34C=C[C@H](O3)C(C(=O)N(C)Cc3nccs3)C4C2=O)cc1C (some centres not stated) | inconclusive: 22.4 µM [cytotoxic, partial curve, poor fit] |  |
| Cc1cn2nc(-c3nc(C4CCCN(C(=O)Cc5ccsc5)C4)no3)cc2c(=O)[nH]1 (configuration not stated) |  | inactive: -4.22% |
| CCN1CCC(OCCCNC(=O)c2ccc(CC3CCN(C(C)=O)CC3)cc2)CC1 | inconclusive: 25.1 µM [rising, partial curve, poor fit] |  |
| NC(Cc1ccccc1)C(=O)N1CCC2(CC1)CN(C(=O)c1ccc(Cl)cc1)CCO2 (configuration not stated) | inconclusive: 7.94 µM [cytotoxic, full curve, poor fit] |  |
| O=C(NCCc1nc(-c2ccccc2)cs1)c1ccc2nccn2c1 | inconclusive: 20 µM [cytotoxic, partial curve, poor fit] |  |
